Assay results taken from the RNAGym collection of RNA variant scans (doi:10.7554/elife.90254).
Read counts are not given, so values of variants with three or more changes are uncertain.

B1: LINE1-mini (parent)
chain: GGCAGAGCUCAACACAGCGUGGCAAAGUGGCUGUGGCUAGACUGCC

Variants of: B1
Assay: self-cleavage, relative activity (ratio to wild type); higher = more cleavage; in vitro, sequencing; the parent is a self-cleaving ribozyme

Variant | self-cleavage
GGCAGAACUCUACACAGCGUGGCACAGUGGCUGUGGCUAUACUGCC [G7A A11U A25C G40U] | 0.01
GGCAGAGCUCAAAACAGCGUGGGAAAGUGCUUGUGGCUAGACUGCC [C13A C23G G30C C31U] | 0.06
GGCAGAGCUUAACACAGCGUGGCAGUGUGGGUGUAGCUAGACUGCC [C10U A25G A26U C31G G35A] | 0.03
GACAGAGCUCAAAACAGCGGGGCAAAGUGUCUGUGGCUAGUCAGCC [G2A C13A U20G G30U A41U U43A] | 0.01
GGCAGAGCUCAACACAGCGUGGCAAAAUUGCUGUGGCUAGACUGUC [G27A G29U C45U] | 2.6
CGCAGGGCUCAACACAGCGUGGCAAAGUGGCUGUGGCUAGACGGCC [G1C A6G U43G] | 0
GGGAGAGCUCAACAGUGCGUGGGAAAGUGGCUGUGGCUAUACUGCC [C3G C15G A16U C23G G40U] | 0.02
GGUAAAGUUCAACACAGCGUGGCAAAGUGGCUGUGUCUAGACUGCC [C3U G5A C8U G36U] | 0.32
GGCAGAGCUCAACACAGAGUGGUUAAGUGGCUGUGGCUAUACUGCA [C18A C23U A24U G40U C46A] | 0.08
GACAGAGGUCAACACAGCGUGGUAAAGUGGCUGUGGCUAAACUGCC [G2A C8G C23U G40A] | 0.2
GGCCGAGCUCAACACAACGUGGCAAAGUGGCUGUGGUUAGACUGCC [A4C G17A C37U] | 0.09
GGUAUAGCUCAACACAGCGUGGCAAAGUGGCUUACGCUCGACUGCC [C3U G5U G33U U34A G35C A39C] | 0.05
GGCGGAUCUCAACACAGCGGGGCAAAGUGGCUGUGACUAGACUGCC [A4G G7U U20G G36A] | 0.08
GGCAGAGCUCAACACAGCAUGGAAAAGUGGCUGGGGCUAGACUGCC [G19A C23A U34G] | 0.23
GGCAGAGCUCAACACCGCGUGGGAAAGUGGCUGUGGCUUGACUGCC [A16C C23G A39U] | 0.02
GGCAGAUCACAACACAGCGUUGCAAAGUGGCUGUGGCUAUACUGCC [G7U U9A G21U G40U] | 0.07
GGCAUAGCUCAACACAGCGUGGCAAAGUGGCCGUCGCUAGACUGCC [G5U U32C G35C] | 0.02
GUCAGAGCUCGGCACAGCGUGGCAAAGUGGCUGUGGCUAGACUGCC [G2U A11G A12G] | 0.01
GGCAGAGCUAAACACAGCGUGGCAAAGUGGCGGUGGCGAGACUGCG [C10A U32G U38G C46G] | 0.02

Variant | self-cleavage
GGCAGAGCUCAACACAGCUUUGCAAAUUCGCUGUGGCUAGACUGCC [G19U G21U G27U G29C] | 0.32
GGCAGAUCUCAACACAGAGAGGCAAAGUGGCUGUGGCUAGACUGCC [G7U C18A U20A] | 0.04
GGCAGAGCUCACGACAGCGUGGCAAAGUGGCUGUGUCUAGACAGCC [A12C C13G G36U U43A] | 0.01
GGCAGAGCUCAACACAGCGCGGCAAAGUGGCUGUGCUUAGACUGCC [U20C G36C C37U] | 0.01
GGAAGAGCUCAACACAGCGUGGCAAAGUGGCUGUGGCUAGACGGCU [C3A U43G C46U] | 0.47
GACAGAGCUCGACACAGCGUGGCAAAGGGGCUGUGGGUAGACUGCC [G2A A11G U28G C37G] | 0
GCGAGAGCUAAACACAACUUGGCAAAGUGGCUGUGGCUAGACUGCC [G2C C3G C10A G17A G19U] | 0.04
GGCAGAUCUCAACACAGCGUGGCAAAGUGGAUGUGGCUAGAGUGCC [G7U C31A C42G] | 0.06
GGAAGAGCUGAACAUAGCGUGGAAAAGUGGCUGUGGUUUGACUGCC [C3A C10G C15U C23A C37U A39U] | 0.04
GGCAGAGCUCAACACAGGGUGGCAAAGUGACUGAGGCUAGAUCGCC [C18G G30A U34A C42U U43C] | 0.08
GGAAGGGCUCAACACAGGGUGGCAAAGUGGCUGUGGCUAGACUGCC [C3A A6G C18G] | 0.07
GGCAGAGCUCAACAAAGCGUAGCAAAGUGGCUGUGGCUUGACUGCC [C15A G21A A39U] | 0.28
GGCAGAGCUCAACACAACGAGCCAAAGUGGCUGUGGCUAGACUGCC [G17A U20A G22C] | 0.07
GGAAGAGCUCAAAACAGCGUGGCAAAGUGGCUGUGGCCACACUGCC [C3A C13A U38C G40C] | 0.06
GGCACAGCUCAAAACAGCGUUGCAAAGUGGCUGUGUCGAGACUGCC [G5C C13A G21U G36U U38G] | 0.02
UGUAGAGCUUAACACAGCGUGGCAAAGCGGCUGUGGCUAGACUUCC [G1U C3U C10U U28C G44U] | 0.24
GGCAGAUCACAACACAGCGUGGCAAAAUGGCUGUGGCUAGACUGCC [G7U U9A G27A] | 0.08
GGCAGAGCUGAACACAGCGUGGCAAAGGGGCUGGGGCUAGACUGCC [C10G U28G U34G] | 0.03
GGCAGAGCUCAACACAUCGUGUAAAACUGGCUGUGGCUAGGCUGCC [G17U G22U C23A G27C A41G] | 0.43

Variant | self-cleavage
GGCACAGCUUAACACAGCGUGGCAAAGUGGCUGUGGCUAGUCUGCC [G5C C10U A41U] | 0.04
GGCAUAGCUCAACGCAGCGUAGCAAAGUGGCUGUGGCUAUACUGCC [G5U A14G G21A G40U] | 0.09
GACAGAGCUCAACUCAGCGUGGCAAAGUGCCUGUCGCUAGACUGAC [G2A A14U G30C G35C C45A] | 0.43
GGCAGAGCUCAACAUAGCGUGGCAAAGUGGCGGUGACCAGACUGCC [C15U U32G G36A U38C] | 0.28
GGCAUAGCUCAACACAGCGGGGCAAAGCGGCUGUGGCUAGACUGCC [G5U U20G U28C] | 0.06
GGCAGAGCUCAACACAGUGUGGCAAAGUGGCUGUGGAAAGUCUGCC [C18U C37A U38A A41U] | 0.02
GGCAGAGCACAACAGAGCGCGGCAAAGUGGCUGUCGCUAGACUGCC [U9A C15G U20C G35C] | 0.04
GCCAGAGCUCAACACAGCUUCGCAAAGUGGCUAAGGCGCGACUGCC [G2C G19U G21C G33A U34A U38G A39C] | 0.02
GGCAGAGCUCACCACAGCUCGGCAAAGUGGCUAUGGCUAGACUGCC [A12C G19U U20C G33A] | 0.02
UGCAGAGCUCAACACAGCGUGGCAUAGUGGCUGAGGCUAGACUGCC [G1U A25U U34A] | 0.03
GGCAGAGCUCAACACAGCGUGGCAACGUGGAUAUGGUUAGACUGCC [A26C C31A G33A C37U] | 0.02
GGCAGAGCUCAACACAGCGUGUCAUAAUGGCUGUGGCUAGACUGCC [G22U A25U G27A] | 0.81
GGCAGAGCUCAUCACAGCGUGGCAAAGUGGCUGUGAAUUGACUGCC [A12U G36A C37A A39U] | 0.12
GGCAGAGCUGAACACACUGUGGCAAAGGGGCGGUGGCUAGACUGCC [C10G G17C C18U U28G U32G] | 0
GGCAGAGCUCAACACAGCGUGGCUAAGUGGAUGUGGCUAGACCGCU [A24U C31A U43C C46U] | 0.03
GGCAAAGAUCAACACAGCGUGGCAAAGUGGCUGUGGCUAGUCUGCC [G5A C8A A41U] | 0.76
GGCAGAGCUCAACACAGCUGGGCAGAGUAGCUGUGGCUAGACCGCC [G19U U20G A25G G29A U43C] | 0.2
GGCAGAGUUCAACACAGCGUGGCACAGUGGCUGUGGACAGACUGCC [C8U A25C C37A U38C] | 0.43
